Reference: patent US9745340B2, “Method for the separation of proteins containing an albumin-binding” (AFFIBODY AB, priority 2012, dated 2017)

How the values were obtained:
PEP08517 = experiment: Column study I: spin columns, Z variant-coupled SulfoLink resins, pure sample; format: binding; settings: for elution profile in column study I: SulfoLink resin, wash PBS/Tris, elution pH 4 and pH 2.5, A280
Protocol: 1 mg of each lyophilized ABD binding Z variant Z06608, Z06620, Z06638, Z06650, Z06677, Z06678 and Z06695, in the format His6-(Z#####)2-Cys produced as described in Example 2, was resuspended in a reducing buffer (50 mM Tris-HCl, 5 mM EDTA, 20 mM DTT, pH 8.5) and incubated at RT for 2 h. Reduced protein solutions were transferred to a coupling buffer (50 mM Tris-HCl, 5 mM EDTA, pH 8.5) including 50 mM DTT, using size exclusion chromatography, and then mixed with portions of 0.2 ml SulfoLink Coupling Resin (Thermo Fisher Scientific, cat. no. 20401). This procedure enables site-directed reaction between the thiol groups of the C-terminal cysteine residues of the ABD binding Z variants and the iodoacetyl groups of the resin, forming a covalent thioether bond. The coupling reaction was carried out according to the instructions by the manufacturer. The degree of coupling, defined as mg of coupled ABD binding Z variant per ml of resin, was determined as follows: The amount of coupled ABD binding Z variant was calculated by subtracting the amount of uncoupled material from the original amount of sample, based on concentrations obtained by spectrophotometric measurements of the absorbance at 280 nm. The amount of coupled ABD binding Z variant in mg was then divided with the volume of the SulfoLink Coupling Resin.
A first column study was performed to test binding, wash and elution properties of each of the seven ABD binding Z variants coupled to resin and by using a previously purified sample of the ABD fusion protein PEP08517. PEP08517 comprises the albumin binding domain PP013 (SEQ ID NO:160) fused at its N-terminus to a cytokine binding variant of protein Z. 0.1 ml portions of the resins were transferred to test tubes and 0.1 ml of a pure sample of PEP08517 at 2 mg/ml in coupling buffer was added. The tubes were incubated on a rotating wheel for 1 h at RT. Each sample-resin mix was transferred to an empty spin column. Unbound protein was collected by centrifugation (flow-through, FT). 0.1 ml of different solutions, specified in Table 1, were thereafter added to wash and subsequently elute bound PEP08517 molecules. Each wash and elution fraction was collected by centrifugation.
Collected fractions were analyzed in a spectrophotometer by measuring the absorbance at 280 nm.

PEP06548 = experiment: Purification of PEP06548 on anti-ABD agarose; format: binding
Protocol: Pelleted E. coli cells harboring soluble PEP06548 were suspended in TST-buffer supplemented with 27 U/ml Benzonase®. Cells were disrupted by sonication and the cell debris removed by centrifugation. The C-terminal cysteines of the PEP06548 sample molecules were reduced by addition of DTT to a final concentration of 20 mM, followed by incubation for 30 min at RT. Chromatography was performed using an ÄKTAexplorer 100 system. The clarified and reduced sample was applied on an XK-16 column packed with 9 ml anti-ABD agarose and pre-equilibrated with TST. This batch of anti-ABD agarose was prepared essentially as described in Example 6, except for a lower ligand density of approximately 2.3 mg (Z06677)2-Cys per ml of resin. The column was washed with 5.5 CV of TST followed by 3.3 CV of 5 mM NH4Ac pH 5.5. Bound protein was eluted by applying 2.9 CV of 0.1 M HAc, pH 2.9. Fractions were collected for further analyses by SDS-PAGE and HPLC-MS.

B1: His6-(Z06608)2-Cys: dimeric Z06608 with N-terminal His6 tag and C-terminal Cys (protein)
chain: MGSSHHHHHHLQVDAKYAKELHHAFREIKFLPNLTFHQRLAFIVKLDDDPSQSSELLAEAKKLNDAQAPKVDAKYAKELHHAFREIKFLPNLTFHQRLAFIVKLDDDPSQSSELLAEAKKLNDAQAPKVDC
elution step releasing most of the sample (PEP08517; 0.5 M HAc, pH 2.5, first (a) or second (b) addition): eluted most of the sample at the second addition of pH 2.5 buffer | elution profile in column study I (PEP08517): most favorable elution profile

B2: His6-(Z06638)2-Cys: dimeric Z06638 with N-terminal His6 tag and C-terminal Cys (protein)
chain: MGSSHHHHHHLQVDAKYAKELVNAFSEIKALPNLTLHQRLAFIVKLDDDPSQSSELLAEAKKLNDAQAPKVDAKYAKELVNAFSEIKALPNLTLHQRLAFIVKLDDDPSQSSELLAEAKKLNDAQAPKVDC
elution profile in column study I (PEP08517): most favorable elution profile

B3: His6-(Z06650)2-Cys: dimeric Z06650 with N-terminal His6 tag and C-terminal Cys (protein)
chain: MGSSHHHHHHLQVDAKYAKEFKLALQEIHYLPNLTLDQRLAFILKLDDDPSQSSELLAEAKKLNDAQAPKVDAKYAKEFKLALQEIHYLPNLTLDQRLAFILKLDDDPSQSSELLAEAKKLNDAQAPKVDC
elution profile in column study I (PEP08517): most favorable elution profile

B4: (Z06677)2-Cys: dimeric Z06677 with C-terminal Cys, GSSLQ-[Z06677][Z06677]-VDC (SEQ ID NO: 187) (protein)
chain: GSSLQVDAKYAKELKVAFKEINTLPNLTHQQRIAFIIKLDDDPSQSSELLAEAKKLNDAQAPKVDAKYAKELKVAFKEINTLPNLTHQQRIAFIIKLDDDPSQSSELLAEAKKLNDAQAPKVDC
purified PEP06548 obtained per ml of resin (PEP06548; ligand density approximately 2.3 mg (Z06677)2-Cys per ml of resin): 3.7 mg per ml of resin | PEP06548 molecule per (Z06677)2-Cys ligand (PEP06548; ligand density approximately 2.3 mg per ml of resin): approximately one
